Assay results: paper PMC12820563, “FoxP3 forms a head-to-head dimer in vivo and stabilizes its multimerization on adjacent microsatellites”
Some of the results follow.

Target: T1, MBP-FoxP1dN (Mus musculus, UniProt P58462 326-579)
T1 sequence: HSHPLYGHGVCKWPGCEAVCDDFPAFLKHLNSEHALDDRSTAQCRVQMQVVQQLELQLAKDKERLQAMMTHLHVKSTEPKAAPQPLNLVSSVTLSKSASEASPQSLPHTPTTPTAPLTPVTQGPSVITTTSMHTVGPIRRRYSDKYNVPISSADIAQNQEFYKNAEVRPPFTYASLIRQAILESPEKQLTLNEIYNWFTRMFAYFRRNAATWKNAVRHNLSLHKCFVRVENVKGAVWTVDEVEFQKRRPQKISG
Test: PD-seq (MBP pull-down with sequencing); 20 mM Tris-HCl pH 7.5, 100 mM NaCl, 1.5 mM MgCl2, 0.4 uM protein, 0.1 uM dsDNA library, 30 min, room temperature, amylose pull-down; high values mean tight binding
Details: protein: recombinant; tags: His6-MBP; chain copies: 2; dsDNA, one strand shown
Summary of the method: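 In Tris pH 7.5 buffer with NaCl and MgCl2, 0.4 µM His6-MBP-tagged mouse FoxP3 or FoxP1 fragment lacking the N-terminus, from E. coli, met 0.1 µM Klenow-filled double-stranded degenerate DNA library for 30 min at room temperature. Three washes on amylose resin followed capture of the complexes, then proteinase K release of DNA, PCR barcoding and Illumina sequencing. Binding is taken as pooled-replicate reads-per-million enrichment of pull-down relative to input.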

**Q.** How did the binding signal turn out when “GATGATTGTTCTCCCAGCTGATGAATTACGAGTGTCGAGTAAACAAATTTTCCTAATCTTTCTGTTCAAGCGCCATCTAC” was run?
**A.** 1.09 RPM ratio (pull-down/input)

**Q.** With “GATGATTGTTCTCCCAGCTGATGAATTTTGCGGATCGAGTAAACAAATTTTCCTAATCTTTCTGTTCAAGCGCCATCTAC” as the sequence, how does the binding signal read?
**A.** 0.89 RPM ratio (pull-down/input)

**Q.** With “GATGATTGTTCTCCCAGCTGATGAATTGACCTCCTCGAGTAAACAAATTTTCCTAATCTTTCTGTTCAAGCGCCATCTAC” as the sequence, how does the binding signal read?
**A.** 0.877 RPM ratio (pull-down/input)

**Q.** For “GATGATTGTTCTCCCAGCTGATGAATTGGACCGCTCGAGTAAACAAATTTTCCTAATCTTTCTGTTCAAGCGCCATCTAC”, which binding signal is on record?
**A.** 0.785 RPM ratio (pull-down/input)

**Q.** How did the binding signal turn out when “GATGATTGTTCTCCCAGCTGATGAATTCACGGATTCGAGTAAACAAATTTTCCTAATCTTTCTGTTCAAGCGCCATCTAC” was run?
**A.** 0.876 RPM ratio (pull-down/input)

**Q.** Which binding signal does the source give for “GATGATTGTTCTCCCAGCTGATGAATTAGTAGGGTCGAGTAAACAAATTTTCCTAATCTTTCTGTTCAAGCGCCATCTAC” here?
**A.** 0.898 RPM ratio (pull-down/input)

**Q.** For “GATGATTGTTCTCCCAGCTGATGAATTACCACCGTCGAGTAAACAAATTTTCCTAATCTTTCTGTTCAAGCGCCATCTAC”, which binding signal is on record?
**A.** 0.941 RPM ratio (pull-down/input)

**Q.** For “GATGATTGTTCTCCCAGCTGATGAATTGTTTGGTTCGAGTAAACAAATTTTCCTAATCTTTCTGTTCAAGCGCCATCTAC”, which binding signal is on record?
**A.** 1.81 RPM ratio (pull-down/input)

**Q.** Which binding signal does the source give for “GATGATTGTTCTCCCAGCTGATGAATTTGCAGGATCGAGTAAACAAATTTTCCTAATCTTTCTGTTCAAGCGCCATCTAC” here?
**A.** 0.869 RPM ratio (pull-down/input)

**Q.** How did the binding signal turn out when “GATGATTGTTCTCCCAGCTGATGAATTGGCAGAGTCGAGTAAACAAATTTTCCTAATCTTTCTGTTCAAGCGCCATCTAC” was run?
**A.** 0.838 RPM ratio (pull-down/input)

**Q.** With “GATGATTGTTCTCCCAGCTGATGAATTTTTCCCATCGAGTAAACAAATTTTCCTAATCTTTCTGTTCAAGCGCCATCTAC” as the sequence, how does the binding signal read?
**A.** 1 RPM ratio (pull-down/input)

**Q.** For “GATGATTGTTCTCCCAGCTGATGAATTCTCTCGATCGAGTAAACAAATTTTCCTAATCTTTCTGTTCAAGCGCCATCTAC”, which binding signal is on record?
**A.** 0.877 RPM ratio (pull-down/input)

**Q.** “GATGATTGTTCTCCCAGCTGATGAATTCATATCTTCGAGTAAACAAATTTTCCTAATCTTTCTGTTCAAGCGCCATCTAC” was tested. Which binding signal did it give?
**A.** 0.965 RPM ratio (pull-down/input)

**Q.** For “GATGATTGTTCTCCCAGCTGATGAATTATCCAGGTCGAGTAAACAAATTTTCCTAATCTTTCTGTTCAAGCGCCATCTAC”, which binding signal is on record?
**A.** 0.843 RPM ratio (pull-down/input)

**Q.** Which binding signal does the source give for “GATGATTGTTCTCCCAGCTGATGAATTTCCTTTCTCGAGTAAACAAATTTTCCTAATCTTTCTGTTCAAGCGCCATCTAC” here?
**A.** 0.78 RPM ratio (pull-down/input)

**Q.** For “GATGATTGTTCTCCCAGCTGATGAATTAGTTCTCTCGAGTAAACAAATTTTCCTAATCTTTCTGTTCAAGCGCCATCTAC”, which binding signal is on record?
**A.** 0.897 RPM ratio (pull-down/input)

**Q.** For “GATGATTGTTCTCCCAGCTGATGAATTACGTGCCTCGAGTAAACAAATTTTCCTAATCTTTCTGTTCAAGCGCCATCTAC”, which binding signal is on record?
**A.** 1.09 RPM ratio (pull-down/input)

**Q.** With “GATGATTGTTCTCCCAGCTGATGAATTTCCCTACTCGAGTAAACAAATTTTCCTAATCTTTCTGTTCAAGCGCCATCTAC” as the sequence, how does the binding signal read?
**A.** 0.856 RPM ratio (pull-down/input)

**Q.** Which binding signal does the source give for “GATGATTGTTCTCCCAGCTGATGAATTGGTTTGGTCGAGTAAACAAATTTTCCTAATCTTTCTGTTCAAGCGCCATCTAC” here?
**A.** 0.947 RPM ratio (pull-down/input)

**Q.** Which binding signal does the source give for “GATGATTGTTCTCCCAGCTGATGAATTCCTATCGTCGAGTAAACAAATTTTCCTAATCTTTCTGTTCAAGCGCCATCTAC” here?
**A.** 0.886 RPM ratio (pull-down/input)

**Q.** How did the binding signal turn out when “GATGATTGTTCTCCCAGCTGATGAATTTGCCCATTCGAGTAAACAAATTTTCCTAATCTTTCTGTTCAAGCGCCATCTAC” was run?
**A.** 1.01 RPM ratio (pull-down/input)

**Q.** Which binding signal does the source give for “GATGATTGTTCTCCCAGCTGATGAATTCCTGTGATCGAGTAAACAAATTTTCCTAATCTTTCTGTTCAAGCGCCATCTAC” here?
**A.** 0.93 RPM ratio (pull-down/input)

**Q.** How did the binding signal turn out when “GATGATTGTTCTCCCAGCTGATGAATTGGCAGACTCGAGTAAACAAATTTTCCTAATCTTTCTGTTCAAGCGCCATCTAC” was run?
**A.** 0.771 RPM ratio (pull-down/input)

**Q.** “GATGATTGTTCTCCCAGCTGATGAATTCCCGAGGTCGAGTAAACAAATTTTCCTAATCTTTCTGTTCAAGCGCCATCTAC” was tested. Which binding signal did it give?
**A.** 0.751 RPM ratio (pull-down/input)

**Q.** Which binding signal does the source give for “GATGATTGTTCTCCCAGCTGATGAATTCATGTCTTCGAGTAAACAAATTTTCCTAATCTTTCTGTTCAAGCGCCATCTAC” here?
**A.** 0.94 RPM ratio (pull-down/input)

**Q.** For “GATGATTGTTCTCCCAGCTGATGAATTACCCCACTCGAGTAAACAAATTTTCCTAATCTTTCTGTTCAAGCGCCATCTAC”, which binding signal is on record?
**A.** 0.938 RPM ratio (pull-down/input)

**Q.** Which binding signal does the source give for “GATGATTGTTCTCCCAGCTGATGAATTGGTTTATTCGAGTAAACAAATTTTCCTAATCTTTCTGTTCAAGCGCCATCTAC” here?
**A.** 1.17 RPM ratio (pull-down/input)

**Q.** How did the binding signal turn out when “GATGATTGTTCTCCCAGCTGATGAATTTTTCTAGTCGAGTAAACAAATTTTCCTAATCTTTCTGTTCAAGCGCCATCTAC” was run?
**A.** 0.926 RPM ratio (pull-down/input)

**Q.** For “GATGATTGTTCTCCCAGCTGATGAATTAGACAAGTCGAGTAAACAAATTTTCCTAATCTTTCTGTTCAAGCGCCATCTAC”, which binding signal is on record?
**A.** 1.08 RPM ratio (pull-down/input)

**Q.** “GATGATTGTTCTCCCAGCTGATGAATTTAAATATTCGAGTAAACAAATTTTCCTAATCTTTCTGTTCAAGCGCCATCTAC” was tested. Which binding signal did it give?
**A.** 1.08 RPM ratio (pull-down/input)

**Q.** For “GATGATTGTTCTCCCAGCTGATGAATTTCTCAGCTCGAGTAAACAAATTTTCCTAATCTTTCTGTTCAAGCGCCATCTAC”, which binding signal is on record?
**A.** 0.749 RPM ratio (pull-down/input)

**Q.** With “GATGATTGTTCTCCCAGCTGATGAATTTACCGGCTCGAGTAAACAAATTTTCCTAATCTTTCTGTTCAAGCGCCATCTAC” as the sequence, how does the binding signal read?
**A.** 1 RPM ratio (pull-down/input)

**Q.** How did the binding signal turn out when “GATGATTGTTCTCCCAGCTGATGAATTAAGGAAGTCGAGTAAACAAATTTTCCTAATCTTTCTGTTCAAGCGCCATCTAC” was run?
**A.** 0.789 RPM ratio (pull-down/input)

**Q.** Which binding signal does the source give for “GATGATTGTTCTCCCAGCTGATGAATTGAAGGTCTCGAGTAAACAAATTTTCCTAATCTTTCTGTTCAAGCGCCATCTAC” here?
**A.** 0.792 RPM ratio (pull-down/input)

**Q.** With “GATGATTGTTCTCCCAGCTGATGAATTAGATCCCTCGAGTAAACAAATTTTCCTAATCTTTCTGTTCAAGCGCCATCTAC” as the sequence, how does the binding signal read?
**A.** 0.816 RPM ratio (pull-down/input)

**Q.** Which binding signal does the source give for “GATGATTGTTCTCCCAGCTGATGAATTGATCTGATCGAGTAAACAAATTTTCCTAATCTTTCTGTTCAAGCGCCATCTAC” here?
**A.** 0.968 RPM ratio (pull-down/input)

**Q.** How did the binding signal turn out when “GATGATTGTTCTCCCAGCTGATGAATTGTCATACTCGAGTAAACAAATTTTCCTAATCTTTCTGTTCAAGCGCCATCTAC” was run?
**A.** 1.1 RPM ratio (pull-down/input)

**Q.** How did the binding signal turn out when “GATGATTGTTCTCCCAGCTGATGAATTTCGCCTCTCGAGTAAACAAATTTTCCTAATCTTTCTGTTCAAGCGCCATCTAC” was run?
**A.** 0.919 RPM ratio (pull-down/input)

**Q.** Which binding signal does the source give for “GATGATTGTTCTCCCAGCTGATGAATTTCCCCGGTCGAGTAAACAAATTTTCCTAATCTTTCTGTTCAAGCGCCATCTAC” here?
**A.** 0.731 RPM ratio (pull-down/input)

**Q.** “GATGATTGTTCTCCCAGCTGATGAATTATAGCGATCGAGTAAACAAATTTTCCTAATCTTTCTGTTCAAGCGCCATCTAC” was tested. Which binding signal did it give?
**A.** 0.975 RPM ratio (pull-down/input)
